The values below come from the supplement of paper PMC4604168 (melanoma cell lines).

The other results are listed elsewhere or left out. Repeats are few or missing, and single values can be far off.
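Also: cells treated in 1,536-well plates, then fixed and DAPI-stained, with nuclei counted from automated high-throughput microscope images.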

This assay concerns A2058. The experiment in a line: cell count relative to DMSO control; melanoma cells; higher = more viable cells. The settings on record: library dose: standard library concentration; 72 h.
The molecule `Cc1cc(Nc2cc(N3CCN(C)CC3)nc(Sc3ccc(NC(=O)C4CC4)cc3)n2)n[nH]1` [Tozasertib] + CCCCCCCCCCCCCCCCCCOP(=O)([O-])OC1CC[N+](C)(C)CC1 [Perifosine] (first compound 0.03 µM, partner dose 2 µM) displayed a cell count of 76.2%.

For the molecule `CC[C@]1(O)C[C@H]2CN(CCc3c([nH]c4ccccc34)[C@@](C(=O)OC)(c3cc4c(cc3OC)N(C=O)[C@H]3[C@@](O)(C(=O)OC)[C@H](OC(C)=O)[C@]5(CC)C=CCN6CC[C@]43[C@@H]65)C2)C1` [vincristine] + O=C(/C=C/c1cccnc1)NCCCCC1CCN(C(=O)c2ccccc2)CC1 [FK866] (first compound 0.0005 µM, partner dose 0.05 µM), the cell count stood at 85.2%.

For the molecule `N#CC[C@H](C1CCCC1)n1cc(-c2ncnc3[nH]ccc23)cn1` [ruxolitinib] + Cn1nnc2c(C(N)=O)ncn2c1=O [temozolomide] (first compound 5 µM, partner dose 10 µM), the cell count stood at 31.6%.

The molecule `CC[C@]1(O)C[C@H]2CN(CCc3c([nH]c4ccccc34)[C@@](C(=O)OC)(c3cc4c(cc3OC)N(C=O)[C@H]3[C@@](O)(C(=O)OC)[C@H](OC(C)=O)[C@]5(CC)C=CCN6CC[C@]43[C@@H]65)C2)C1` [vincristine] + Cn1cncc1[C@@](N)(c1ccc(Cl)cc1)c1ccc2c(c1)c(-c1cccc(Cl)c1)cc(=O)n2C [tipifarnib] (first compound 0.0005 µM, partner dose 0.05 µM) gave a cell count of 5.24%.

`N#CC[C@H](C1CCCC1)n1cc(-c2ncnc3[nH]ccc23)cn1` [ruxolitinib] + NC1(c2ccc(-c3nc4ccn5c(=O)[nH]nc5c4cc3-c3ccccc3)cc2)CCC1 [MK2206] (first compound 5 µM, partner dose 2 µM) came in with a cell count of 64.6%.

For `CC[C@]1(O)C[C@H]2CN(CCc3c([nH]c4ccccc34)[C@@](C(=O)OC)(c3cc4c(cc3OC)N(C=O)[C@H]3[C@@](O)(C(=O)OC)[C@H](OC(C)=O)[C@]5(CC)C=CCN6CC[C@]43[C@@H]65)C2)C1` [vincristine] + C[C@@H](N)c1ccc(C(=O)Nc2ccnc3[nH]ccc23)cc1 [RKI983] (first compound 0.0005 µM, partner dose 2 µM), the cell count was found to be 5.68%.

In the case of `N#CC[C@H](C1CCCC1)n1cc(-c2ncnc3[nH]ccc23)cn1` [ruxolitinib] + O=C(/C=C/c1cccnc1)NCCCCC1CCN(C(=O)c2ccccc2)CC1 [FK866] (first compound 5 µM, partner dose 0.05 µM), the cell count amounted to 83.2%.

`Cc1cc(Nc2cc(N3CCN(C)CC3)nc(Sc3ccc(NC(=O)C4CC4)cc3)n2)n[nH]1` [Tozasertib] + Clc1ccc(Nc2nnc(Cc3ccncc3)c3ccccc23)cc1 [vatalanib] (first compound 0.03 µM, partner dose 10 µM) gave a cell count of 83.4%.

The molecule `CC[C@]1(O)C[C@H]2CN(CCc3c([nH]c4ccccc34)[C@@](C(=O)OC)(c3cc4c(cc3OC)N(C=O)[C@H]3[C@@](O)(C(=O)OC)[C@H](OC(C)=O)[C@]5(CC)C=CCN6CC[C@]43[C@@H]65)C2)C1` [vincristine] + O=C1NC(=O)/C(=C/c2ccc(-c3ccc(F)cc3O)o2)S1 [AS252424] (first compound 0.0005 µM, partner dose 5 µM) yielded a cell count of 11.8%.

`CC[C@]1(O)C[C@H]2CN(CCc3c([nH]c4ccccc34)[C@@](C(=O)OC)(c3cc4c(cc3OC)N(C=O)[C@H]3[C@@](O)(C(=O)OC)[C@H](OC(C)=O)[C@]5(CC)C=CCN6CC[C@]43[C@@H]65)C2)C1` [vincristine] + Nc1nc(F)nc2c1ncn2[C@@H]1O[C@H](CO)[C@@H](O)[C@@H]1O [fludarabine] (first compound 0.0005 µM, partner dose 1 µM) yielded a cell count of 64.7%.

Take `Cc1cc(Nc2cc(N3CCN(C)CC3)nc(Sc3ccc(NC(=O)C4CC4)cc3)n2)n[nH]1` [Tozasertib] + CC[C@]1(O)C[C@H]2CN(CCc3c([nH]c4ccccc34)[C@@](C(=O)OC)(c3cc4c(cc3OC)N(C=O)[C@H]3[C@@](O)(C(=O)OC)[C@H](OC(C)=O)[C@]5(CC)C=CCN6CC[C@]43[C@@H]65)C2)C1 [vincristine] (first compound 0.03 µM, partner dose 0.0005 µM): the cell count was 115%.

`N#CC[C@H](C1CCCC1)n1cc(-c2ncnc3[nH]ccc23)cn1` [ruxolitinib] + CS(=O)(=O)CCNCc1ccc(-c2ccc3ncnc(Nc4ccc(OCc5cccc(F)c5)c(Cl)c4)c3c2)o1 [lapatinib] (first compound 5 µM, partner dose 4 µM) returned a cell count of 78.7%.

`CC[C@]1(O)C[C@H]2CN(CCc3c([nH]c4ccccc34)[C@@](C(=O)OC)(c3cc4c(cc3OC)N(C=O)[C@H]3[C@@](O)(C(=O)OC)[C@H](OC(C)=O)[C@]5(CC)C=CCN6CC[C@]43[C@@H]65)C2)C1` [vincristine] + Cn1c(=O)n(-c2ccc(C(C)(C)C#N)cc2)c2c3cc(-c4cnc5ccccc5c4)ccc3ncc21 [NVP-BEZ235] (first compound 0.0005 µM, partner dose 0.02 µM) showed a cell count of 55%.

The molecule `CC[C@]1(O)C[C@H]2CN(CCc3c([nH]c4ccccc34)[C@@](C(=O)OC)(c3cc4c(cc3OC)N(C=O)[C@H]3[C@@](O)(C(=O)OC)[C@H](OC(C)=O)[C@]5(CC)C=CCN6CC[C@]43[C@@H]65)C2)C1` [vincristine] + NC(=O)Nc1cc(-c2cccc(F)c2)sc1C(=O)N[C@H]1CCCNC1 [AZD7762] (first compound 0.0005 µM, partner dose 0.1 µM) registered a cell count of 14.6%.

For `CC[C@]1(O)C[C@H]2CN(CCc3c([nH]c4ccccc34)[C@@](C(=O)OC)(c3cc4c(cc3OC)N(C=O)[C@H]3[C@@](O)(C(=O)OC)[C@H](OC(C)=O)[C@]5(CC)C=CCN6CC[C@]43[C@@H]65)C2)C1` [vincristine] + CN(c1ncccc1CNc1nc(Nc2ccc3c(c2)CC(=O)N3)ncc1C(F)(F)F)S(C)(=O)=O [PF562271] (first compound 0.0005 µM, partner dose 0.4 µM), the cell count was 58.7%.

Turning to `N#CC[C@H](C1CCCC1)n1cc(-c2ncnc3[nH]ccc23)cn1` [ruxolitinib] + COCC[n+]1c2c(n(Cc3cnccn3)c1C)C(=O)c1ccccc1C2=O [YM155] (first compound 5 µM, partner dose 0.002 µM), the cell count is 16.8%.

Regarding `N#CC[C@H](C1CCCC1)n1cc(-c2ncnc3[nH]ccc23)cn1` [ruxolitinib] + COc1cc2c(Oc3ccc4[nH]c(C)cc4c3F)ncnc2cc1OCCCN1CCCC1 [cediranib] (first compound 5 µM, partner dose 2 µM), the cell count stood at 102%.

In turn, `CC[C@]1(O)C[C@H]2CN(CCc3c([nH]c4ccccc34)[C@@](C(=O)OC)(c3cc4c(cc3OC)N(C=O)[C@H]3[C@@](O)(C(=O)OC)[C@H](OC(C)=O)[C@]5(CC)C=CCN6CC[C@]43[C@@H]65)C2)C1` [vincristine] + OCCn1cc(-c2cnc3nnn(Cc4ccc5ncccc5c4)c3n2)cn1 [PF04217903] (first compound 0.0005 µM, partner dose 5 µM) had a cell count of 90.5%.

In turn, `CC[C@]1(O)C[C@H]2CN(CCc3c([nH]c4ccccc34)[C@@](C(=O)OC)(c3cc4c(cc3OC)N(C=O)[C@H]3[C@@](O)(C(=O)OC)[C@H](OC(C)=O)[C@]5(CC)C=CCN6CC[C@]43[C@@H]65)C2)C1` [vincristine] + CC1(C)NC(=O)N(c2ccc([N+](=O)[O-])c(C(F)(F)F)c2)C1=O [nilutamide] (first compound 0.0005 µM, partner dose 5 µM) had a cell count of 14.4%.

Regarding `N#CC[C@H](C1CCCC1)n1cc(-c2ncnc3[nH]ccc23)cn1` [ruxolitinib] + COc1ccc(C2=N[C@@H](c3ccc(Cl)cc3)[C@@H](c3ccc(Cl)cc3)N2C(=O)N2CCNC(=O)C2)c(OC(C)C)c1 [Nutlin-3] (first compound 5 µM, partner dose 0.5 µM), the cell count was determined as 111%.

In turn, `Cc1cc(Nc2cc(N3CCN(C)CC3)nc(Sc3ccc(NC(=O)C4CC4)cc3)n2)n[nH]1` [Tozasertib] + O=C(Nc1cccc(Cl)c1)Nc1ncc(CCNc2ncnc3ccsc23)s1 [SNS314] (first compound 0.03 µM, partner dose 0.004 µM) returned a cell count of 23%.

As for `CC[C@]1(O)C[C@H]2CN(CCc3c([nH]c4ccccc34)[C@@](C(=O)OC)(c3cc4c(cc3OC)N(C=O)[C@H]3[C@@](O)(C(=O)OC)[C@H](OC(C)=O)[C@]5(CC)C=CCN6CC[C@]43[C@@H]65)C2)C1` [vincristine] + Clc1ccc(Nc2nnc(Cc3ccncc3)c3ccccc23)cc1 [vatalanib] (first compound 0.0005 µM, partner dose 10 µM), the cell count is 12.9%.

`Cc1cc(Nc2cc(N3CCN(C)CC3)nc(Sc3ccc(NC(=O)C4CC4)cc3)n2)n[nH]1` [Tozasertib] + COc1ccc(Cl)c(Nc2nc3ccccc3nc2NS(=O)(=O)c2cccc(NC(=O)C(C)(C)N)c2)c1 [XL147] (first compound 0.03 µM, partner dose 4 µM) gave a cell count of 67.3%.

With `Cc1cc(Nc2cc(N3CCN(C)CC3)nc(Sc3ccc(NC(=O)C4CC4)cc3)n2)n[nH]1` [Tozasertib] + N#CC[C@H](C1CCCC1)n1cc(-c2ncnc3[nH]ccc23)cn1 [ruxolitinib] (first compound 0.03 µM, partner dose 5 µM), the cell count came to 85.9%.

`N#CC[C@H](C1CCCC1)n1cc(-c2ncnc3[nH]ccc23)cn1` [ruxolitinib] + CC(C)C[C@H](NC(=O)[C@H](Cc1ccccc1)NC(=O)c1cnccn1)B(O)O [Bortezomib] (first compound 5 µM, partner dose 0.005 µM): the cell count is 19.2%.
